The results in this text go back to PubChem BioAssay AID1508624 (National Center for Advancing Translational Sciences (NCATS), 2021).

Hit rate of the full screen: of about 48,000 compounds, about 120 (0.25%) were called active. Not shown: some 4% with an inconclusive outcome. The call rests on the fitted dose curve; in most records, active means well fitted activation curve with a large enough effect; inconclusive means small, poorly fitted or top-dose-only effect, or another doubt; inactive means no such curve, though single readings can be large or run the other way. The list shows a part of the results.
Potency means the concentration at half of the fitted maximal effect.

A short description of this assay: Primary qHTS for Identification of Small Molecule Activators of Huntingtin-Antisense Promoter Activity. Further: nearly all actives have a fitted effect of over 55% in size. To be noted: HEK293 HTT-AS promoter firefly luciferase reporter, 24 h; series mostly up to 57.5 µM; activity change, positive = activation: at the top concentration. The essentials: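 Quantitative HTS used concentration series of up to 57.5 uM final on HEK293 luciferase reporter cells, 24 h at 37 degrees C. Readout was Dual-Glo firefly luminescence.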
In the case of `CCOC(=O)c1ccc(NC(=O)CCCn2c(=O)c3cccn3c3cccnc32)cc1`, the “activity change, positive = activation” value was inactive: -20.4%.

Take `Cc1cccc(Cn2c(SCc3ccc(C(=O)NC4CCCC4)cc3)nc3cccnc32)c1`: the “activity change, positive = activation” value is inactive: -25.8%.

As for `Cc1nn(-c2ccc(Cl)cc2)c2nc(-c3cccnc3)cc(C(F)(F)F)c12`, the “activity change, positive = activation” value is inactive: -8.35%.

As for `COc1ccc(NC(=O)C2CCN(S(=O)(=O)c3c(C)noc3/C=C/c3cccs3)CC2)cc1`, the “activity change, positive = activation” value was inactive: -14.2%.

Consider `COc1ccc(OC)c(S(=O)(=O)NCC(c2ccco2)S(=O)(=O)c2ccccc2)c1` (stereo not given), for which the “activity change, positive = activation” value was inactive: 7.12%.

On to `Cc1ccccc1OCCCCn1c(CCNC(=O)C(C)(C)C)nc2ccccc21`, for which the “activity change, positive = activation” value is inactive: -24.9%.

For `COc1ccc(CC2=NN3C([C@@H](CCc4ccccc4)[C@@H](C)O)=NC(C)C3C(=O)N2)cc1OC` (stereo not given in full), the Potency is active: 7.69 µM.

On to `O=C(CSc1ccccc1)NCc1ccc2c(c1)CCN2C(=O)c1ccccc1`, for which the “activity change, positive = activation” value was inactive: 4.46%.

On to `COc1cccc(-c2noc(CCCC(=O)NCc3ccco3)n2)c1`, for which the “activity change, positive = activation” value is inactive: 9.2%.

`CN(Cc1ccccc1)C(=O)CCS(=O)(=O)c1ccc2c(c1)oc(=O)n2C`: the “activity change, positive = activation” value is inactive: -5.86%.

With `CCn1cc(S(=O)(=O)c2cccc(Cl)c2)c(=O)c2cc(F)c(N3CCN(C)CC3)cc21`, the “activity change, positive = activation” value is inactive: 0.266%.

As to `COC(=O)c1ccccc1NC(=O)c1ccc(-c2nc(CSc3ccc(C)cc3)c(C)o2)cc1`, the “activity change, positive = activation” value is inactive: 1.04%.

Take `Cc1ccc(-n2c(=O)c3c4c(sc3n(CC(=O)Nc3cccc(Cl)c3)c2=O)CCCCC4)cc1C`: the “activity change, positive = activation” value is inactive: -19.1%.

On to `COc1cc(C)nc(-n2nc(C)cc2OC)n1`, for which the “activity change, positive = activation” value was inactive: -1.02%.

In the case of `CS(=O)(=O)Nc1ccc([N+](=O)[O-])cc1Oc1ccccc1`, the activity change, positive = activation entry was “inactive”.

In the case of `Cc1cccc(C)c1OCC(=O)NC(Cc1c[nH]c2ccccc12)C(=O)O` (stereo not given), the “activity change, positive = activation” value was inactive: -1.73%.

Regarding `Cc1ccc(S(=O)(=O)NCc2nc3nc(C)cc(C)n3n2)cc1`, the “activity change, positive = activation” value is inactive: 1.82%.

In the case of `Cc1ccc(C)c(CN2CCCN(CC(=O)Nc3ccc(C)c(C)c3)S2(=O)=O)c1`, the “activity change, positive = activation” value was inactive: -28.1%.

Consider `COc1cc(Cl)c(C)cc1NC(=O)CCc1nc2cccnc2n1Cc1cccs1`, for which the “activity change, positive = activation” value is inactive: -27.3%.

Turning to `CCN(CC)CCCNC(=O)c1ccc(Cn2c(=O)[nH]c3cc(OC)c(OC)cc3c2=O)cc1`, the “activity change, positive = activation” value was inactive: 2.38%.

Regarding `Cn1cc(C(=O)NCc2ccccc2Cl)c(=O)c2cc(S(=O)(=O)N3CCCCCC3)ccc21`, the activity change, positive = activation is inactive: 5.95% [at 11.5 µM, percent change from vehicle, -100% = no light].

With `CCOC(=O)c1c(S(=O)(=O)N2CCC(C(=O)N3CCN(c4ccccc4F)CC3)CC2)c(C)n(C)c1C`, the “activity change, positive = activation” value was inactive: 0%.

For the molecule `CCn1cc(C(=O)O)c(=O)c2cc(F)c(N3CCNC(C)C3)c(F)c21` (stereo not given), the activity change, positive = activation entry is “inactive”.

For `CC1=C(C(=O)Nc2ccccc2)C(c2ccc[nH]2)n2ncnc2N1` (stereo not given), the “activity change, positive = activation” value is inactive: -4.3%.

In the case of `COc1ccccc1N1CCN(Cc2nnc(-c3ccccc3C)o2)CC1`, the “activity change, positive = activation” value is inactive: 11.5%.
